Measured values as given in publication PMC6919601, “Identification of Plasmodium dipeptidyl aminopeptidase allosteric inhibitors by high throughput screening” (PLoS ONE, 2019).
The campaign covered roughly 110,000 compounds. About 230 (0.21%) showed an effect of 50% or more. The list shows a part of the results.

Target: DPAP1 (Plasmodium falciparum, UniProt Q8IIJ9)
Experiment: primary screen, percent inhibition; read by cleavage of a fluorogenic dipeptide substrate; higher = more effect of the substance
Parameters: species or system P. falciparum D10 trophozoite lysates; single well
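Note: 30 min substrate incubation versus DMSO and 10 µM JCP410 controls.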

DPAP1, sequence (Q8IIJ9 whole entry, looked up): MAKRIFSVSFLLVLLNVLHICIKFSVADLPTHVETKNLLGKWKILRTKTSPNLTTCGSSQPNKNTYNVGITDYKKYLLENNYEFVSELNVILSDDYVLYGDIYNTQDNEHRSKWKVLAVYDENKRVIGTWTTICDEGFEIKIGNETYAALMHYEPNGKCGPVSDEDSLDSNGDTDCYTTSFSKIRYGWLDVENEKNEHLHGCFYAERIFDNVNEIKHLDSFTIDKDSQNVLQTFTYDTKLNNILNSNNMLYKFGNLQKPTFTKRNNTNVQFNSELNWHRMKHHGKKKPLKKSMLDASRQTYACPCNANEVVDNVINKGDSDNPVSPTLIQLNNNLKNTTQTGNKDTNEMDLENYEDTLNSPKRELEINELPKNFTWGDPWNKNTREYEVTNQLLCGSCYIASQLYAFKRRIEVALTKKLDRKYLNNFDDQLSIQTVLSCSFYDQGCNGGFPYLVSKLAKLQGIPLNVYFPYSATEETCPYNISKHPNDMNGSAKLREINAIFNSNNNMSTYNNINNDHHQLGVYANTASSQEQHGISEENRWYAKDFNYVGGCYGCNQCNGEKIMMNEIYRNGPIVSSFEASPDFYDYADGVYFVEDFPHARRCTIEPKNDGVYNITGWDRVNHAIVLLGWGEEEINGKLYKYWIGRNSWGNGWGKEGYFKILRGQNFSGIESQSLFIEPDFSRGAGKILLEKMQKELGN

| SMILES | % Inhibition @ 10 uM |
| --- | --- |
| Fc1ccc(N2CCN(Cc3ccc(C(F)(F)F)cc3)CC2)cc1 | -5.41% |
| CCO/C(O)=C1/C(C)=Nc2ncnn2C1c1ccccc1OC(F)F (stereo not shown) | 1.73% |
| Cc1ccc(C)n1-c1nnc(N2CCC(C(=O)NC(C)c3ccc4c(c3)OCCO4)CC2)s1 (stereo not shown) | -5.89% |
| COc1ccccc1N1CCN(C(=O)Cc2ccc(Br)cc2)CC1 | 2.44% |
| O=C(NCc1ccc2c(c1)OCO2)C1CC(=O)N(CCc2ccccc2)C1 (stereo not shown) | -1.79% |
| CSc1ncc(C(=O)NCc2cccc(Cl)c2)c(C(F)(F)F)n1 | -2.48% |
| O=C(COc1ccc(Br)cc1Cl)Nc1ccc(S(=O)(=O)N2CCCC2)cc1 | -1.95% |
| C=CCOC(=O)c1sc(N2C(=O)c3oc4ccccc4c(=O)c3C2c2cccs2)nc1C (stereo not shown) | 0.189% |
| CC12CN3CC(C)(CN(C1)C3c1cc(Br)ccc1O)C2=O (stereo not shown) | -4.35% |
| Cc1ccc(O)c(C2=NN3C(C2)c2ccccc2OC3c2cccs2)c1 (stereo not shown) | 0.0719% |
| Cc1cc(C)nc(NC(=N)N2CCC(C)CC2)n1 | 2.36% |
| COc1ccc(C(=O)N2CCN(c3ccccc3OC)CC2)cc1 | 1.9% |
| CCOC(=O)c1c(C)nc2n(CCN(CC)CC)c3ccccc3n12 | 1% |
| CN1CCN(CCCNC(=O)C2CCN(S(=O)(=O)N3CCC4(CC3)OCCO4)CC2)CC1 | 2.18% |
| CCN(CC)S(=O)(=O)c1ccc(NC(=O)COc2ccc(Cl)cc2Cl)cc1 | -4.86% |
| CC1(C)CC(=O)C2=C(C1)N(CCc1ccccc1)C(=O)C2(NC(=O)c1ccc(F)cc1)C(F)(F)F (stereo not shown) | 4.05% |
| FC(F)(F)c1cc(-c2ccco2)nc(NCCc2ccccc2)n1 | -0.503% |
| O=C(Nc1nnc(S(=O)(=O)N2CCOCC2)s1)c1ccccc1 | -1.72% |
| COc1cccc(C(=O)Nc2nnc(S(=O)(=O)N3CCCCC3)s2)c1 | -7.29% |
| O=C(NCCc1ccccc1)C(Cc1ccccc1)N1C(=O)c2ccccc2C1=O (stereo not shown) | -4.06% |
| COc1ccc(C)cc1NC(=O)c1cnn(C)c1 | -6.41% |
| COc1cc(N2C(=O)c3ccccc3C2=O)ccc1-n1nc(C)cc1C | -7.5% |
| c1ccc(-c2csc3nc4ccccc4n23)cc1 | -2.8% |
| O=C(Nc1cccc(Cl)c1Cl)[C@@H]1C[C@@H]1c1ccccc1 | -3.71% |
| CCCCNC(=O)CS(=O)(=O)Cc1nc(-c2ccccc2Cl)oc1C | -4.69% |

| SMILES | % Inhibition @ 10 uM |
| --- | --- |
| CCOC(=O)c1cc(NC(=O)N2CCN(CC)CC2)c(C)nc1C | -4.19% |
| Cc1nonc1OCC(C)(COc1nonc1C)NC(=O)c1ccccc1 | 1.38% |
| COc1ccc(C(=O)NC(c2ccccc2)c2ccccc2)c(OC)n1 | -5.03% |
| CC1CCN(C(=O)Cn2cc(/C=C(\C#N)C(=O)NC3CC3)c3ccccc32)CC1 | -8.85% |
| Cc1ccc(C2=NC(=O)/C(=C/c3cc4c(cc3Br)OCO4)S2)cc1 | 0.884% |
| COc1ccc(CC(=O)N2CCN(Cc3noc(CCC(=O)N(C)C4CCCCC4)n3)CC2)cc1 | 5.61% |
| Cc1ccc(C)c(-c2csc(Nc3ccc(Cl)cc3)n2)c1 | -5.65% |
| Cc1ccccc1C(=O)Nc1ccccc1C(N)=O | -5.7% |
| Cc1ccc(CNC(=O)C(C)n2nc(C)c3c(C)n(-c4ccccc4)nc3c2=O)o1 (stereo not shown) | -0.665% |
| CCOC(=O)N1CCN(C(=O)C2CC(c3cc(OC)c(OC)c(OC)c3)=NO2)CC1 (stereo not shown) | -0.431% |
| CC(C)NC(=O)CCN1C(=O)c2ccccc2C1=O | -5.49% |
| CS(=O)(=O)N1CCN(c2ccc([N+](=O)[O-])cc2)CC1 | -4.43% |
| CCOC(=O)c1conc1-c1c[nH]c2ccccc12 | -9.1% |
| Cc1ccccc1CNC1CCCCC1 | -6.92% |
| CSC1=C(C#N)C(c2ccc(Br)cc2)CC(=O)N1 (stereo not shown) | 2.58% |
| CCOc1ccc(C(=O)C2=C(O)C(=O)N(c3nnc(C)s3)C2c2ccccc2F)cc1 (stereo not shown) | -1.25% |
| Cc1c(C(=O)NCCc2ccc(S(N)(=O)=O)cc2)sc2nc(-c3ccccc3)cn12 | 1.55% |
| Cc1ccc(OCC(=O)N(C(C)C)C(C)C)cc1C | 0.13% |
| CCC(C)C(C(=O)O)N1C(=O)NC2NC(=O)NC21 (stereo not shown) | 13.5% |
| CCCn1c2ccccc2c2cnn(CC(=O)NCCN(Cc3ccco3)C(C)CC)c(=O)c21 (stereo not shown) | 5.92% |
| Cc1ccc(CNS(=O)(=O)c2cc(-c3cc(C)no3)ccc2C)cc1 | -7.06% |
| COCc1[nH]nc2c1C(c1ccc(OC)c(OC)c1)C(C#N)=C(N)O2 (stereo not shown) | -2.64% |
| CCN1CCN(Cc2ccc([N+](=O)[O-])o2)CC1 | -5.57% |
| Cc1cccc(OCCSc2nc(-c3ccccc3F)nc3cc(=O)[nH]n23)c1 | 2.82% |
| O=C(NCc1ccccc1Cl)c1cc2c(=O)oc3ccccc3c2s1 | -1.51% |

| SMILES | % Inhibition @ 10 uM |
| --- | --- |
| Cc1cccc(C)c1NC(=O)CSc1nc2ccc(N)cc2s1 | 4.08% |
| Cc1ccc(S(=O)(=O)Cc2nc(-c3ccc(C(=O)NCC4CCCO4)cc3)oc2C)cc1 (stereo not shown) | -6.31% |
| O=C(Nc1ccc(Cl)cc1C(=O)O)c1ccc(N2C(=O)c3ccccc3C2=O)cc1 | 19.3% |
| CCOC(=O)N1CCN(C(=O)c2ccc(-c3ccccc3)cc2)CC1 | -2.65% |
| C=C(C)Cn1c(COc2cccc(OC)c2)nc2ccccc21 | -1.15% |
| COc1ccc(-c2noc(CSc3nnc(C)n3-c3ccc(C)c(C)c3)n2)cc1 | -4.02% |
| COc1ccc(Cl)cc1C(=O)Nc1sc2c(c1C(N)=O)CCC2 | -0.996% |
| Fc1ccccc1-c1nnc(-c2ccccc2Cl)o1 | -4.3% |
| CCOC(=O)N1CCN(S(=O)(=O)c2cc(Cl)c(C)cc2OC)CC1 | 3.58% |
| CCC1SC2=NC(C)=C(C(=O)OC)C(c3ccc(OCc4ccccc4)c(OC)c3)N2C1=O (stereo not shown) | 2.24% |
| O=C1C(=O)N(CCc2ccccc2)c2ccccc21 | -1.74% |
| COc1ccc(NC(=O)c2nc3nc(-c4ccccc4)cc(C(F)(F)F)n3n2)cc1OC | -1.99% |
| Cc1cc(Cl)ccc1OCC(=O)Nc1ccc(CC#N)cc1 | 1.72% |
| OC(CNC1CCCCC1)Cn1c(C(F)(F)F)nc2ccccc21 (stereo not shown) | 2.31% |
| C1CCN(CCCNC2C3CC4CC(C3)CC2C4)C1 (stereo not shown) | -0.192% |
| CCCCN(C)C(=O)c1cc(-c2ccccn2)nc2ccc(S(=O)(=O)N3CCC(C)CC3)cc12 | -2.72% |
| COc1ccc2c(CNCc3ccccc3)c(C(=O)O)[nH]c2c1 | -2.1% |
| COc1cc(OC)cc(-c2nnc(NC(=O)c3ccc(S(=O)(=O)N4CCCC(C)C4)cc3)o2)c1 (stereo not shown) | -0.363% |
| Cc1ccc(N(C(=O)c2cccc(F)c2)c2nc(C(F)(F)F)c(-c3ccc(Cl)cc3)s2)c(C)c1 | 6.31% |
| CCc1cccc(CC)c1NC(=O)Cn1cnc2ccccc2c1=O | 2.09% |
| Cc1cc2oc(C(=O)NCCc3ccc(S(N)(=O)=O)cc3)c(C)c2cc1C | -4.66% |
| Cc1ccnc(NC(=O)COc2ccc(C)cc2C)c1 | 1.38% |
| COc1ccc(/C=C2\SC(N3CCCCC3)=NC2=O)cc1OC | -3.72% |
| COc1ccc(C2CC(c3ccccc3)=NN2S(=O)(=O)c2ccccc2)cc1 (stereo not shown) | -6.3% |
| COc1ccc(NC(=O)c2ccc(Cl)cc2Cl)cn1 | -0.185% |

| SMILES | % Inhibition @ 10 uM |
| --- | --- |
| Cc1cccc(C(=O)Nc2sc3c(c2C(=O)N2CCN(C)CC2)CCC(C)C3)c1 (stereo not shown) | -0.28% |
| CCOC(=O)/C(C#N)=C/c1c(Oc2ccc(C)cc2)nc2c(C)cccn2c1=O | -1.43% |
| O=C(NCCc1ccccc1)c1noc2c1CCc1ccccc1-2 | -7.85% |
| O=C(O)CNC(=O)c1ccccc1 | 3.39% |
| COc1ccc(-c2cc(C(F)(F)F)nc(SCC(=O)NCc3ccncc3)n2)cc1OC | 30.6% |
| CCC(O)c1ccc(OC)c(OC)c1 (stereo not shown) | -3.38% |
| CC1(C)Oc2ccc3ccc(=O)oc3c2CC1=O | -4.87% |
| Cc1ccc(C(C)C)cc1S(=O)(=O)NCc1cccnc1 | -8.41% |
| CCCn1c2ccccc2c2cnn(CC(=O)NCCN3CC(C)CC(C)C3)c(=O)c21 (stereo not shown) | 0.00353% |
| COc1ccc(/C=C2/C(=O)CNC2=O)cc1 | 0.484% |
| COc1ccc(NC2=CC(=O)CC(c3ccc(OC)cc3)C2)cc1 (stereo not shown) | 3.05% |
| CCN(CC)CCNC(=O)Cn1cc2c(n1)-c1c(oc(C(=O)N3CCCC3)c1C)CC2 | -4.07% |
| O=C(Nc1ccccc1)C1CC=CCC1C(=O)OCC1CCCO1 (stereo not shown) | 3.25% |
| O=C(c1cccs1)N1CCN(c2ccccc2)CC1 | -6.82% |
| COc1ccc(CNC(=O)CCn2c(-c3ccc(F)cc3)cc(C(C)=O)c2C)cc1OC | 1.68% |
| CC1CN(C(=O)c2ccc3c(c2)OCO3)OC(c2c[nH]c3ccccc23)O1 (stereo not shown) | 5.58% |
| CC(C)CN(CCNC(=O)c1csc2c1CCCC2)CC(C)C | -1.44% |
| NC(=O)c1ccc2c(c1)C1c3ccccc3C2c2ccccc21 | 5.77% |
| Cc1cc(C(=O)NCc2ccccc2C)c2c(C)nn(-c3ccccc3)c2n1 | -0.257% |
| O=C(CCNS(=O)(=O)c1ccc2nc(O)ccc2c1)NC1CCN(Cc2ccccc2)CC1 | -1.97% |
| Cc1ccc(CSCC(=O)Nc2ccc3ccccc3c2)cc1 | -5.14% |
| Cc1ccc(CN2CCN(CCO)CC2)o1 | -5.42% |
| Cc1ccc(C(C)C)c(OCC(=O)Nc2cccc(Cl)c2)c1 | -6.68% |
| N#C/C(=C/c1ccco1)c1nc(-c2ccccc2O)cs1 | -3.4% |
| CN1CCCCC/C1=N\CCCn1cnc2c1c(=O)n(C)c(=O)n2C | 2.99% |
